In the assay the test system is HeLa-hACE2 cells. Nature of the assay: Immunofluorescence-based antiviral assay with LysoTracker dye in HeLa-hACE2. The note with it: read-out: EC50 against SARS-CoV-2 from the LysoTracker assay.

Where two headings read alike, the source gives them in different places.

With `CN1CCN(C(=O)N[C@@H](Cc2ccccc2)C(=O)N[C@H](/C=C/S(=O)(=O)c2ccccc2)CCc2ccccc2)CC1` [K777], the EC50 – broadly, the concentration giving half of the maximal effect – stood at 0.0006 µM.

As for `C[C@H](NC(=O)[C@H](Cc1ccc(O)cc1)NC(=O)OCc1ccccc1)C(=O)C=[N+]=[N-]`, the EC50 (24 h) is 0.04 µM.

The values above are taken from paper PMC10055926.
